# Assay results: article PMC4336329 (PLoS ONE, 2015)
# The whole screen tested about 310,000 compounds, of which about 2,200 (0.71%) showed an effect of 50% or more. The effect is printed as a negative number. Some of the results follow. Where a SMILES comes first, the peptide text is derived from it. [ ]: non-standard residue; d: D form. The star is where a group is joined. ξ: configuration not given here. Cbz = O=C(OCc1ccccc1)*; ξA = CC(N)C(=O)O
# Target: human ether-à-go-go-related gene (hERG) potassium channel (human, UniProt Q12809)
# Assay: primary screen, population patch clamp on CHO cells stably expressing hERG
# Sequence of human ether-à-go-go-related gene (hERG) potassium channel (Q12809 whole entry, looked up): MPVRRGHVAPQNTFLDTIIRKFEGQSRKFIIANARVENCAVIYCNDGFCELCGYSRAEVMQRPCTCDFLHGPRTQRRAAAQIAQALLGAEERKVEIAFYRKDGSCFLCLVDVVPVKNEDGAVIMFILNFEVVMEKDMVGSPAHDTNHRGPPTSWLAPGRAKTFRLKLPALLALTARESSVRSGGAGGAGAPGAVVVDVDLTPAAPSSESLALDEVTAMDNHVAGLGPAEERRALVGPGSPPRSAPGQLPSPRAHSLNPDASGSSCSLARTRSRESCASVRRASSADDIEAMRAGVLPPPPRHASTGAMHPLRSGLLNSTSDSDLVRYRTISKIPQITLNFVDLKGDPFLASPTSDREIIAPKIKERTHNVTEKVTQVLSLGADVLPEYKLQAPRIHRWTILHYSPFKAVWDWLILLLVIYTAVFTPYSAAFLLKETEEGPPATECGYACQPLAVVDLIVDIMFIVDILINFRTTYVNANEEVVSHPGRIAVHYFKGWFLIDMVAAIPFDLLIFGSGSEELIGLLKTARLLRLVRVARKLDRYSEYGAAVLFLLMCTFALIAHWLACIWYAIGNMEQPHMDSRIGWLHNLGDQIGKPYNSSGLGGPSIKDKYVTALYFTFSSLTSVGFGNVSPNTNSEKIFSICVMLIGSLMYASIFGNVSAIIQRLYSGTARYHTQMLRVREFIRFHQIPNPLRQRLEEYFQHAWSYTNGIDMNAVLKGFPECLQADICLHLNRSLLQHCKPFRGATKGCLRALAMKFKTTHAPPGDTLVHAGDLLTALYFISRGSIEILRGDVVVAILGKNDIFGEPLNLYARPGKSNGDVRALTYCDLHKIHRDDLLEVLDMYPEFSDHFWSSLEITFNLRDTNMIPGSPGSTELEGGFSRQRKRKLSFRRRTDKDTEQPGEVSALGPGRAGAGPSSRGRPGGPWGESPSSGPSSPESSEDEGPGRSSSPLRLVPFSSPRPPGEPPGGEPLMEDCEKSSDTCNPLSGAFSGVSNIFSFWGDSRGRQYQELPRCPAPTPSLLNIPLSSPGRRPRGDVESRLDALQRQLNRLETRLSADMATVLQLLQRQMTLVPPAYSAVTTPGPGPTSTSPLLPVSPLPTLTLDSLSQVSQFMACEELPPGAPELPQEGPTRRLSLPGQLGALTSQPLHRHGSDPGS
row,Compound,"hERG current change (%, negative = inhibition) at 1uM [%]"
1,CN(C)CCCN(C(=O)c1ccc(Cl)s1)c1nc2cc3c(cc2s1)OCO3,-5.53
2,COc1cc(C(=O)NCCNC(=O)c2cc(OC)c(C)c(OC)c2)cc(OC)c1C,12.4
3,CCc1cccc2c(C=C(C#N)C#N)cn(CC(=O)N3CCCCC3)c12,4.82
4,O=C(NN1C(=O)c2cc(Br)ccc2NC1c1ccccc1Cl)c1ccncc1 (stereo not drawn),11.5
5,CCOC(=O)c1cnc2ccc(OC)cc2c1Nc1ccc(N2CCN(C)CC2)cc1,9.71
6,COc1ccccc1N(CC(=O)N1CCN(c2ccc(F)cc2)CC1)S(=O)(=O)c1ccc(C)cc1,11.3
7,CCN(CC)S(=O)(=O)c1ccc(N/N=C/c2cc(OC)c(OC)cc2OC)nc1,17.4
8,N#CCCn1cc(/C=N/O)c(-c2ccc(F)cc2)n1,6.15
9,N=c1c(C(=O)NC2CCCCC2)cc2c(=O)n3ccccc3nc2n1Cc1ccccc1,-10.1
10,COc1ccc(N(CN2C(=O)C3CCCCC3C2=O)C(=O)c2ccco2)cc1 (stereo not drawn),4.7
11,CC(C)Cc1cc(C(=O)NCc2cccs2)no1,-3.3
12,CN1CCN(S(=O)(=O)c2ccc(Oc3ccc(F)cc3Br)nc2)CC1,6.61
13,O=C(c1ccccc1NS(=O)(=O)c1ccccc1[N+](=O)[O-])N1CCCC1,13.1
14,COC(=O)CSc1ccc2nnc(CCNS(=O)(=O)c3ccccc3)n2n1,12.4
15,O=C(CSc1nnc(-c2ccccc2)n1-c1ccc(Cl)cc1)NNC(=S)Nc1ccccc1,15.1
16,CC(Oc1ccc2c3c(c(=O)oc2c1)CCCC3)C(=O)NCc1ccccn1 (stereo not drawn),2.21
17,Cc1ccc(S(=O)(=O)N2CCN(C3CCC(c4ccccc4)CC3)CC2)cc1 (stereo not drawn),7.33
18,Cc1cccc(C)c1N1C(=O)CN(Cc2ccccc2)C1=S,4.06
19,CC(=O)CSc1nnc(CSc2ncccn2)n1C1CCCCC1,-7.51
20,CCC(=O)NC(c1ccccc1)c1c(OC(C)=O)ccc2ccccc12 (stereo not drawn),-3.05
21,O=C(O)C1CC(=O)n2c(nc3ccccc32)S1 (stereo not drawn),11.8
22,O=C(NCc1ccccn1)C1CCN(S(=O)(=O)c2cnc[nH]2)CC1,9.57
23,C/C(=N\Nc1ccc(Cl)c(C(=O)O)c1)c1cccc2ccccc12,0.444
24,COC(=O)CNC(=O)C(C)NC(=O)CNC(=O)OCc1ccccc1 (stereo not drawn) (Cbz-Gly-[ξA]-Gly-OMe),2.17
